Assay results: article PMC4336329 (PLoS ONE, 2015)
Among all 310,000 compounds or so, about 14,000 (4.5%) showed an effect of 50% or more. The effect is printed as a negative number. The list shows a part of the results.

Molecular target: human ether-à-go-go-related gene (hERG) potassium channel (human, UniProt Q12809)
Experiment: primary screen, population patch clamp on CHO cells stably expressing hERG
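Note: peak tail current of the secondary pulse compared with the same well before compound.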

Chain of human ether-à-go-go-related gene (hERG) potassium channel (Q12809 whole entry, looked up): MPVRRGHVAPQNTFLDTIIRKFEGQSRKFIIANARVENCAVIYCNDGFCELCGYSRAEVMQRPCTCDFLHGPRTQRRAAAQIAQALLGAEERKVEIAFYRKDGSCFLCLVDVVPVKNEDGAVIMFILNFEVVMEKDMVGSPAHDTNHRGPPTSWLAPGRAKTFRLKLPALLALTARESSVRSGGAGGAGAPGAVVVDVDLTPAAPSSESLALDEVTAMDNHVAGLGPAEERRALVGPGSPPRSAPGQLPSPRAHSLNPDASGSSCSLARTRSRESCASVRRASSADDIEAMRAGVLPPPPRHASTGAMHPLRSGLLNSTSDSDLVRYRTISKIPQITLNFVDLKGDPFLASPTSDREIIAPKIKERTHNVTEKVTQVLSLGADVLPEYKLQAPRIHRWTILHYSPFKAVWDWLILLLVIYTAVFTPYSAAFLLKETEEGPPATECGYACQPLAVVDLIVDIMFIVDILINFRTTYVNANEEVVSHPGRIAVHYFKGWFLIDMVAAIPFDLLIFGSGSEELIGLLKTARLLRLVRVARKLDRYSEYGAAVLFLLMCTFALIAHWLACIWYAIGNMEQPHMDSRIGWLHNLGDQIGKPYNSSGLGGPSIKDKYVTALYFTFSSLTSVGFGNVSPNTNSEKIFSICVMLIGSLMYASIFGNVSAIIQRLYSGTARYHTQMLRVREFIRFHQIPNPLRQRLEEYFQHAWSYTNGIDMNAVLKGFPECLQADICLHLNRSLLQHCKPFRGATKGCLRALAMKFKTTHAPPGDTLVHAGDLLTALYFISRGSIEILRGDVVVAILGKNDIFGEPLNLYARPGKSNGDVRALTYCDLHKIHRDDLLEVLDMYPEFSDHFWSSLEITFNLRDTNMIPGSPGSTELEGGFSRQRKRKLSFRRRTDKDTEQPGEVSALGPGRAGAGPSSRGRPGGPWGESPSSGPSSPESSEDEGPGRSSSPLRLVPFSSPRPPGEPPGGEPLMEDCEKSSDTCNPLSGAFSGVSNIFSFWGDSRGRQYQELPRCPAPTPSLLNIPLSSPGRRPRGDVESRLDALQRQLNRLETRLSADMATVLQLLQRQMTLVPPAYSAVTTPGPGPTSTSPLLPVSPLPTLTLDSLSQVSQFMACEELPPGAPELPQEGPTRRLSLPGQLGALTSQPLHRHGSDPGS

Compound | hERG current change (%, negative = inhibition) at 10uM [%]
CCOc1cc(C=C2C(=O)NC(=O)NC2=O)cc([N+](=O)[O-])c1O | 23.9
O=[N+]([O-])c1ccc(N2CCN(Cc3ccc(Br)o3)CC2)cc1 | -65.1
O=C(NCc1ccccc1)C(c1c(F)cccc1Cl)N(C(=O)c1csnn1)C1CC1 (stereo not drawn) | 1.08
O=C(N/N=C/c1ccccc1C(F)(F)F)c1ccc2nc[nH]c2c1 | 12.6
C=CCn1c(NC(=O)c2ccccc2)nc2ccccc21 | 13
O[C@H]1COC2C1OC[C@@H]2O (stereo partly drawn) | -2.19
C/C(=C\C(=O)c1ccc(Br)cc1)NCc1ccc2c(c1)OCO2 | 3.29
CCOC(=O)C1=C(C)Nc2ccccc2N=C1NC(=O)c1ccc(Cl)c(S(=O)(=O)N2CCCC2)c1 | 0.0828
C=CCn1c(C)cc(C2=NNC(=NCC)SC2)c1C.Cl | -38
COc1ccc(-n2nc(C(=O)NCC(=O)Nc3cccc(Cl)c3)c3ccccc3c2=O)cc1OC | 16.2
Cc1ccc(-n2c(O)c(C=NCc3cccnc3)c(=O)[nH]c2=O)cc1C | 6.07
C/C(=N/NC(=O)CCC(=O)Nc1ccc(Br)cc1)c1ccc(Br)cc1 | 12.7
C/C(Cn1nc([N+](=O)[O-])cc1C)=N\NC(=O)COc1ccc(Cl)cc1Cl | -66.3
CC(=O)C1=C(O)C(=O)OC1c1ccc(C)cc1 (stereo not drawn) | 28.2
COc1cccc(NC(=O)CN(C)C(=O)c2ccc3ccccc3c2)c1 | 1.99
COc1ccc(Cc2n[nH]c(=S)n2NC(=O)Nc2ccc(Cl)c(Cl)c2)cc1 | 16.3
COc1ccc2c(c1)[nH]c1c(N3CCSCC3)ncnc12 | -20
COc1cccc(/C=N/NC(=O)C(=O)N/N=C/c2cccc(OC)c2OC)c1OC | 4.36
O=C(CCN1C(=O)/C(=C\C=C\c2ccccc2)SC1=S)Nc1ccccc1C(=O)O | -0.0728
CCCn1c(SCC(=O)Nc2cc(Cl)ccc2OC)nc(O)cc1=O | -5.33
Nc1cc(-c2ccccc2)nn1S(=O)(=O)c1ccc(F)cc1 | -18.2
CN(C)c1nnnn1-c1ccc(Cl)cc1 | -5.09
COc1ccc(S(=O)(=O)NCc2ccccn2)cc1NC(=O)c1ccccc1 | 8.45
COc1ccc(S(=O)(=O)N2CCC(C(=O)NCc3ccccn3)CC2)cc1OC | -5.84
